Measured values reported in the supplement of paper PMC4967469.

How the values were obtained:
Test in all cases: Viability of human cancer cell lines after 72 h of drug (GDSC screen)
OSI-930 = compound: O=C(Nc1ccc(OC(F)(F)F)cc1)c1sccc1NCc1ccnc2ccccc12 [OSI-930]; settings: top dose 10.24 µM
Protocol: (§1)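 Human cancer cell lines in 384-well plates, medium with 10% serum, drug for 72 h over a 256-fold dose range (nine 2-fold or five 4-fold steps up to the top dose). Adherent lines were fixed and stained with the nucleic acid dye Syto60, suspension lines read with resazurin; signal relative to control wells, capped at 0 and 100%. One two-parameter sigmoid per drug and line, fitted in a mixed model over all curves with the slope shared within a line.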

Elesclomol = compound: CN(NC(=O)CC(=O)NN(C)C(=S)c1ccccc1)C(=S)c1ccccc1 [Elesclomol]; settings: top dose 0.2 µM; top dose inferred
Protocol: as §1

Bleomycin = compound: Cc1c(N)nc([C@H](CC(N)=O)NC[C@H](N)C(N)=O)nc1C(=O)N[C@H](C(=O)N[C@H](C)[C@@H](O)[C@H](C)C(=O)N[C@H](C(=O)NCCc1nc(-c2nc(C(=O)NCCC[S+](C)C)cs2)cs1)[C@@H](C)O)[C@@H](OC1OC(CO)C(O)C(O)C1OC1OC(CO)C(O)C(OC(N)=O)C1O)c1cnc[nH]1 [Bleomycin]
Protocol: as §1

VNLG/124 = compound: CCCC(=O)OCc1ccc(OC(=O)/C=C(C)/C=C/C=C(C)/C=C/C2=C(C)CCCC2(C)C)cc1 [VNLG/124]; settings: top dose 5.12 µM; top dose inferred
Protocol: as §1

HG-5-88-01 = compound: COc1cc(N2CCC(C(N)=O)CC2)ccc1Nc1nc(N)c(Cl)c(Nc2ccccc2S(=O)(=O)C(C)C)n1 [HG-5-88-01]; settings: top dose 10 µM; top dose inferred
Protocol: as §1

LAQ824 = compound: O=C(/C=C/c1ccc(CN(CCO)CCc2c[nH]c3ccccc23)cc1)NO [LAQ824]; settings: top dose 1.024 µM; top dose inferred
Protocol: as §1

NSC-87877 = compound: O=S(=O)(O)c1ccc2cc(N=Nc3cc(S(=O)(=O)O)c4cccnc4c3O)ccc2c1 [NSC-87877]; settings: top dose 16 µM; top dose inferred
Protocol: as §1

Tamoxifen = compound: CC/C(=C(\c1ccccc1)c1ccc(OCCN(C)C)cc1)c1ccccc1 [Tamoxifen]; settings: top dose 5 µM
Protocol: as §1

Masitinib = compound: Cc1ccc(NC(=O)c2ccc(CN3CCN(C)CC3)cc2)cc1Nc1nc(-c2cccnc2)cs1 [Masitinib]; settings: top dose 20 µM
Protocol: as §1

BX-912 = compound: O=C(Nc1cccc(Nc2ncc(Br)c(NCCc3cnc[nH]3)n2)c1)N1CCCC1 [BX-912]; settings: top dose 10.24 µM; top dose inferred
Protocol: as §1

[1] = top dose 50 µM, screen: GDSC drug entry 1378, top dose inferred
[2] = top dose 64 µM, screen: GDSC drug entry 190

Cell Line	AUC (OSI-930)	IC50 (OSI-930) [µM]	AUC (Elesclomol)	IC50 (Elesclomol) [µM]	AUC (Bleomycin; [1])	IC50 (Bleomycin; [1]) [µM]	AUC (Bleomycin; [2])	IC50 (Bleomycin; [2]) [µM]	AUC (VNLG/124)	IC50 (VNLG/124) [µM]	AUC (HG-5-88-01)	IC50 (HG-5-88-01) [µM]	AUC (LAQ824)	IC50 (LAQ824) [µM]	AUC (NSC-87877)	IC50 (NSC-87877) [µM]	AUC (Tamoxifen)	IC50 (Tamoxifen) [µM]	AUC (Masitinib)	IC50 (Masitinib) [µM]	AUC (BX-912)	IC50 (BX-912) [µM]
C2BBe1 (large intestine, adherent)	0.932	> 10.2	0.695	0.0479	0.852	47.3	0.807	38.3	0.938	> 5.12	0.928	> 10	0.532	0.0793	0.943	> 16	0.984	> 5	0.937	> 20	0.972	> 10.2
639-V (bladder, adherent)	0.978	> 10.2	0.386	0.00639	0.318	1.06	0.111	0.298	0.988	> 5.12	0.988	> 10	0.42	0.0402	0.896	14.5	0.99	> 5	0.986	> 20	0.987	> 10.2
NCI-H28 (mesothelioma, adherent)	0.973	> 10.2	0.54	0.0166	0.571	5.18	0.374	1.61	0.981	> 5.12	0.891	> 10	0.483	0.0566	0.981	> 16	0.978	> 5	0.96	> 20	0.973	> 10.2
HuP-T4 (pancreas, adherent)	0.894	> 10.2	0.633	0.0299	0.444	2.17	0.281	0.915	0.984	> 5.12	0.712	2.59	0.499	0.0637	0.984	> 16	0.967	> 5	0.87	> 20	0.758	3.74
NAMALWA (Burkitt lymphoma, suspension)	0.954	> 10.2	0.452	0.00943	0.75	14.1	0.726	15.5	0.588	0.535	0.983	> 10	0.366	0.0292	0.989	> 16	0.984	> 5	0.886	16	0.734	2.61
MN-60 (B-cell leukaemia, suspension)	0.98	> 10.2	0.855	0.17	0.948	> 50	0.501	4.03	0.979	> 5.12	0.957	> 10	0.535	0.0799	0.982	> 16	0.96	> 5	0.858	17.5	0.89	> 10.2
KYSE-410 (oesophagus, adherent)	0.985	> 10.2	0.604	0.0246	0.786	23.2	0.582	6.81	0.984	> 5.12	0.893	> 10	0.405	0.0345	0.985	> 16	0.979	> 5	0.926	> 20	0.955	> 10.2
RPMI-8866 (chronic myeloid leukaemia, suspension)	0.95	> 10.2	0.329	0.00435	–	–	0.604	7.54	0.967	> 5.12	0.967	> 10	0.541	0.0821	0.968	> 16	0.893	> 5	0.847	13.2	0.974	> 10.2
NCI-H720 (lung carcinoid, suspension)	0.983	> 10.2	0.849	0.131	0.975	> 50	0.909	> 64	0.977	> 5.12	0.984	> 10	0.977	> 1.02	0.982	> 16	0.987	> 5	0.984	> 20	0.99	> 10.2
NCI-H1436 (small cell lung carcinoma, suspension)	0.983	> 10.2	0.956	> 0.2	0.931	> 50	0.979	> 64	0.986	> 5.12	0.947	> 10	0.566	0.0995	0.969	> 16	0.93	> 5	0.894	> 20	0.853	9.85
COLO-800 (melanoma, adherent)	0.967	> 10.2	0.65	0.0322	0.094	< 0.195	0.172	0.423	0.986	> 5.12	0.648	1.59	0.53	0.077	0.936	> 16	0.949	> 5	0.806	9.83	0.907	> 10.2
NCI-H1623 (lung adenocarcinoma, adherent)	0.975	> 10.2	0.755	0.0817	0.561	4.75	0.767	28.9	0.981	> 5.12	0.916	> 10	0.637	0.167	0.98	> 16	0.98	> 5	0.973	> 20	0.98	> 10.2
EW-7 (Ewing sarcoma, semi-adherent)	0.929	> 10.2	0.932	> 0.2	0.458	2.44	0.489	3.76	0.896	4.94	0.725	2.47	0.369	0.0293	0.99	> 16	0.973	> 5	0.857	13.2	0.727	2.56
SK-MES-1 (lung squamous cell carcinoma, adherent)	0.927	> 10.2	0.905	> 0.2	0.685	10.9	0.461	3.09	0.983	> 5.12	0.959	> 10	0.442	0.0438	0.971	> 16	0.979	> 5	0.87	> 20	0.92	> 10.2
NCI-H1993 (lung adenocarcinoma, adherent)	0.983	> 10.2	0.983	> 0.2	0.916	> 50	0.916	> 64	0.982	> 5.12	0.902	> 10	0.547	0.0893	0.983	> 16	0.951	> 5	0.976	> 20	0.963	> 10.2
KNS-42 (glioma, adherent)	0.969	> 10.2	0.891	> 0.2	0.901	> 50	0.942	> 64	0.977	> 5.12	0.975	> 10	0.72	0.308	0.981	> 16	0.982	> 5	0.936	> 20	0.942	> 10.2
BB65-RCC (kidney, adherent)	0.982	> 10.2	0.604	0.0253	0.807	30.5	0.666	12.5	0.983	> 5.12	0.964	> 10	0.477	0.0548	0.969	> 16	0.951	> 5	0.88	> 20	0.966	> 10.2
NCI-H2122 (lung adenocarcinoma, adherent)	0.983	> 10.2	0.848	0.135	0.294	0.859	0.238	0.743	0.985	> 5.12	0.92	> 10	0.263	0.0143	0.989	> 16	0.988	> 5	0.929	> 20	0.985	> 10.2
H2731 (mesothelioma, adherent)	0.972	> 10.2	0.402	0.00645	0.349	1.11	0.821	44.1	0.984	> 5.12	0.95	> 10	0.555	0.0923	0.959	> 16	0.982	> 5	0.847	18	0.448	0.451
no-10 (glioma, adherent)	0.979	> 10.2	0.951	> 0.2	0.829	41	0.745	24.1	0.983	> 5.12	0.934	> 10	0.552	0.092	0.983	> 16	0.976	> 5	0.956	> 20	0.965	> 10.2
WM278 (melanoma, adherent)	0.971	> 10.2	0.585	0.022	0.588	5.63	0.31	1.09	0.984	> 5.12	0.897	> 10	0.474	0.0538	0.914	> 16	0.977	> 5	0.886	> 20	0.899	> 10.2

The IC50 comes from the fitted curve, where viability falls to half of the control; fits outside the tested doses are given as limits. AUC, from the same fit, is the share of area under the viability curve across the 256-fold dose range; it is 1 without any effect and falls as sensitivity rises. For some of these results: The top dose, if marked as inferred, comes from the curve model; the source does not state it. For some of these results: An entry number marks a drug with two screens in the source, which often give different values.
